This passage reports Kd results from paper doi:10.1101/2020.11.17.386581 (bioRxiv, 2020).

This assay has as its target Full-length human LRP1 purified from placenta (human, UniProt Q07954 20-4544). As to the kind of experiment: SPR.
Sequence of UniProt Q07954 (Q07954 20-4544): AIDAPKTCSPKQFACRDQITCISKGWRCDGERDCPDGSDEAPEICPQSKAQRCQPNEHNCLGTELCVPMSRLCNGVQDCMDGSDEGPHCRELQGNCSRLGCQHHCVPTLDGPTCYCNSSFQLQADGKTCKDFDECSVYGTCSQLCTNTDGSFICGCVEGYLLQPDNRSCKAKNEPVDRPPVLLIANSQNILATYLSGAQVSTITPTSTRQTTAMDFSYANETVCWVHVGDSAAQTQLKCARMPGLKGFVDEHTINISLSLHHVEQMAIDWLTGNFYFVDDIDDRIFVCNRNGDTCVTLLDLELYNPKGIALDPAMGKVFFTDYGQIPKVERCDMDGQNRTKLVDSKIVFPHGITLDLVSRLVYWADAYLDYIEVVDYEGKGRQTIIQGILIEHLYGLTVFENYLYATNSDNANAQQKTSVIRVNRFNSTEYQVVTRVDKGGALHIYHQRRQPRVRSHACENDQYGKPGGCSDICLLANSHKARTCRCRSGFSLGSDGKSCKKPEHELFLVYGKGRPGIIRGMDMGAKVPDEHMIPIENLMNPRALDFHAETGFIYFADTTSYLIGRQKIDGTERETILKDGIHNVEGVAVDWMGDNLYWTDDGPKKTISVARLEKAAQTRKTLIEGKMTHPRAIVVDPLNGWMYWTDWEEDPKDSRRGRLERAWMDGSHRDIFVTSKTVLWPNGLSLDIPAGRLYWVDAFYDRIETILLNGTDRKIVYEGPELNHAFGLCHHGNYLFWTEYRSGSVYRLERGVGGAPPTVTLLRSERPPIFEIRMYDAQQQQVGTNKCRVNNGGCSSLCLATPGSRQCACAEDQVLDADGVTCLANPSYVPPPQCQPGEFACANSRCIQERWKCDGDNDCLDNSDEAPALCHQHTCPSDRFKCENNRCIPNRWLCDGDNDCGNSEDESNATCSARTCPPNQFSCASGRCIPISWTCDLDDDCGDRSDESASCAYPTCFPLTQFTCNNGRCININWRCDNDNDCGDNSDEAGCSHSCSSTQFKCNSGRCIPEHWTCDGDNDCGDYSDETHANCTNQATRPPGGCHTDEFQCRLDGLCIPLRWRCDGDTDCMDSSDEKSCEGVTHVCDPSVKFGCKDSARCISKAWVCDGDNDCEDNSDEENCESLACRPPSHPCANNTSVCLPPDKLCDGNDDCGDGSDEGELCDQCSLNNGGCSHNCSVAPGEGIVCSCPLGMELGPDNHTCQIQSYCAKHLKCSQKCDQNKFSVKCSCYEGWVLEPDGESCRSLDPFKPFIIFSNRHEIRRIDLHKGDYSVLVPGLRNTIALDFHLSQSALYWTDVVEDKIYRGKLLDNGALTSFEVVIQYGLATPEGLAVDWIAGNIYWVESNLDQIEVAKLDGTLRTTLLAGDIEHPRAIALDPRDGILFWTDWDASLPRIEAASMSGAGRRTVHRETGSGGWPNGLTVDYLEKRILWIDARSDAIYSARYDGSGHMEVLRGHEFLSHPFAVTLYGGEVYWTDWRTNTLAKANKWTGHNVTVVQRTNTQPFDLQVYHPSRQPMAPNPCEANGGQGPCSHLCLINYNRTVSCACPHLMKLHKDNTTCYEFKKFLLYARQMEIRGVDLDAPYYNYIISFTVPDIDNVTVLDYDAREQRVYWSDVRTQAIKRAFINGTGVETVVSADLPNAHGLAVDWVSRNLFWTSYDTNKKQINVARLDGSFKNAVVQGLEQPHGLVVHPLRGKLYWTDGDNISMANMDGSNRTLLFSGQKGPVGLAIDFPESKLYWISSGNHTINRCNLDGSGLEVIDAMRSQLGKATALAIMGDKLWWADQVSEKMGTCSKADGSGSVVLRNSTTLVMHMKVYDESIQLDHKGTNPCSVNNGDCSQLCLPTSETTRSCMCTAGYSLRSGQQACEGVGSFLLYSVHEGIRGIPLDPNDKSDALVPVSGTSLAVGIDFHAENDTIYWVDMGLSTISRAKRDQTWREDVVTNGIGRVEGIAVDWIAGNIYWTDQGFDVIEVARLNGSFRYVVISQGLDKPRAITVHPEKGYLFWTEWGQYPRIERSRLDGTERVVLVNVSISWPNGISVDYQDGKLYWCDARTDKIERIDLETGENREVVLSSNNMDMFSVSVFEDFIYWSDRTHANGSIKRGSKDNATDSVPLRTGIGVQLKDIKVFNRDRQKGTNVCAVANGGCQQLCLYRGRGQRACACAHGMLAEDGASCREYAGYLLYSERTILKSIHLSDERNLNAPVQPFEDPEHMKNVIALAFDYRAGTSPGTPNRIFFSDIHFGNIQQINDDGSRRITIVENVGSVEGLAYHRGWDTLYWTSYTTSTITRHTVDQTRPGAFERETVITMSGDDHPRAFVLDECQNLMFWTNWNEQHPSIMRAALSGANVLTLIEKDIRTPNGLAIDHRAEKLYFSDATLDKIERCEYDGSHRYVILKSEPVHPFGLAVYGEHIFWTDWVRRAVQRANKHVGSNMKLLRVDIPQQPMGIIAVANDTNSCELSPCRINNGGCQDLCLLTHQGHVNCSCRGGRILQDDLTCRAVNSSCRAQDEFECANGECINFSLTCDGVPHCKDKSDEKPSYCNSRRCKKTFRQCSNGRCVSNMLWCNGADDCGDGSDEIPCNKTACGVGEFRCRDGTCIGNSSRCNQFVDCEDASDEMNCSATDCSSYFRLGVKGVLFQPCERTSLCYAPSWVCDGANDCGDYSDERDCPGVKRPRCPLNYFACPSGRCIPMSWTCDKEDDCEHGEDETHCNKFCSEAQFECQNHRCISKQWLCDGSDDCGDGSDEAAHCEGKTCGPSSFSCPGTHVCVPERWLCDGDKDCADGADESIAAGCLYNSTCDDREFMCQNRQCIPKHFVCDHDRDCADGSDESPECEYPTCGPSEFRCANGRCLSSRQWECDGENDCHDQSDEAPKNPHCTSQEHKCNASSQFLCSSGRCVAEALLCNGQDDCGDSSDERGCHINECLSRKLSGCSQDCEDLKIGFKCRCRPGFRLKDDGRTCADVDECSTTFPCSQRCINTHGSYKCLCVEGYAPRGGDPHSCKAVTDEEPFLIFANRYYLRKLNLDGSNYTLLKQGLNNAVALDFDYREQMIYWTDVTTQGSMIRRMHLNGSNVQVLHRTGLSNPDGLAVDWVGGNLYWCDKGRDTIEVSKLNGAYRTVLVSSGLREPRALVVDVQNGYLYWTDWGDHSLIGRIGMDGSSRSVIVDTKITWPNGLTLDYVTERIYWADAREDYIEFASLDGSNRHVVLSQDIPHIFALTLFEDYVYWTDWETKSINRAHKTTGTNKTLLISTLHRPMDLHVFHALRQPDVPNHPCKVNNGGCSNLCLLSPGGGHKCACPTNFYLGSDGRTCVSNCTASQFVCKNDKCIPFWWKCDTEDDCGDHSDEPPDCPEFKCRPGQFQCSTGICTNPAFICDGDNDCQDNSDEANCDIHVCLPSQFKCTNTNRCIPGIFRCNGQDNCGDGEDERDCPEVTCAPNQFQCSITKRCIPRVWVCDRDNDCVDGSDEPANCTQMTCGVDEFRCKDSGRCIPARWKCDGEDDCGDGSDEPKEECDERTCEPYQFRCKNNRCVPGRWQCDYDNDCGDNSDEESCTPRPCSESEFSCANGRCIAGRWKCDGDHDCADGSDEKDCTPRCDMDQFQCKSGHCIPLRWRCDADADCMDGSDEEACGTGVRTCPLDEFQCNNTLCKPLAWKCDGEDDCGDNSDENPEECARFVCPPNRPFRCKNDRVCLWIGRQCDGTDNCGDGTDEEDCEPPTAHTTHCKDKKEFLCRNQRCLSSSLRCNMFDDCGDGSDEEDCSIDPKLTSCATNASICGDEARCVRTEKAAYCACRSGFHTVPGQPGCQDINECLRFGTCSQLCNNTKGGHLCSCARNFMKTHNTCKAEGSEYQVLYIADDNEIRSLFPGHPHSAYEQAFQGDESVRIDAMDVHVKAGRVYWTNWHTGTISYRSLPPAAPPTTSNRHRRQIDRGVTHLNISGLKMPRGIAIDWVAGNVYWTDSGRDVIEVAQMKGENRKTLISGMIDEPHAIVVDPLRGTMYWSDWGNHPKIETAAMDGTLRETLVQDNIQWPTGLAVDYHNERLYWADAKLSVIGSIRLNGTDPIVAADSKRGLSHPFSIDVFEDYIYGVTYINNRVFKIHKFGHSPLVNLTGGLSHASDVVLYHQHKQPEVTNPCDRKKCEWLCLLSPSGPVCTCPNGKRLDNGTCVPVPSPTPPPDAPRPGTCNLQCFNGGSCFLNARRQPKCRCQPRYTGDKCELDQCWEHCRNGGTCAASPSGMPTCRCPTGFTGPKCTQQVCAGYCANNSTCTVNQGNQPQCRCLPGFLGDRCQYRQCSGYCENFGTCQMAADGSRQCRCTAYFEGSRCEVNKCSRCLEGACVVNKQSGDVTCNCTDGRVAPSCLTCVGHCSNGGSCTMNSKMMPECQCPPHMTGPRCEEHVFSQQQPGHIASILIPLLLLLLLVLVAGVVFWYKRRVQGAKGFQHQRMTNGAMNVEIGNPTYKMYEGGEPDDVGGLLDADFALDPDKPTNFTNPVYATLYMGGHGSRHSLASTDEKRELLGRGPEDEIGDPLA

B1: recombinant human tau 2N3R (natural protein)
chain: not shown
For orientation: Kd means the free concentration of one partner at which half of the binding sites on the other are occupied at equilibrium, for simple one-to-one binding. A higher Kd goes with weaker binding. As for B1, the Kd was 278 ± 55 nM.

B2: tau microtubule binding domain (MBD; SP-496) (domain or fragment)
chain: not shown
Molecule B2 displayed a Kd of 73 ± 18 nM.
